From a collection of fitness landscapes (doi:10.1016/j.celrep.2020.107928) come the findings set out here.

First the molecules themselves.
B1: Caulobacter ParB omega fusion; a variant is named by its letters at X, in order, B8GW30 (parent)
chain: MESVVVGEPGMSEGRRGLGRGLSALLGEVDAAPAQAPGEQLGGSREAPIEILQRNPDQPRRTFREEDLEDLSNSIREKGVLQPILVRPSPDTAGEYQIVAGERAWRAAQRAGLKTVPIMVRELDDLAVLEIGIIENVQRADLNVLEEALSYKVLMEKFERTQENIAQTIGKSXSHVANXMRLLXLPDEVQSYLVSGELTAXHARAIAAAADPVALAKQIIEGGLSVRETEALARKAPNLSAGKSKGGRPPRVKDTDTQALESDLSSVLGLDVSIDHRGSTGTLTITYATLEQLDDLCNRLTRGI

In all, about 81,000 sequences were measured (“one-hybrid fitness for binding parS DNA”: median about -0.17, highest 2% from about 0.51 on). The list shows a part of the results.

Variants of B1 are the subject of the test. The test is described as follows: one-hybrid fitness for binding parS DNA (scaled: cognate 1, non-cognate 0); higher = stronger binding. The following applies: with parS DNA site. A digest of the protocol: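 Bacterial one-hybrid selection in E. coli USO rpoZ- hisB- pyrF- with a HIS3 reporter carrying the site 19 bp from the promoter, screening Caulobacter ParB libraries with four specificity codons randomised (NNS). Cells grew 48 hours at 37°C on M9-minus-histidine plus 0.1 mM IPTG and 5 mM 3-AT. Plasmids before and after selection were Illumina-sequenced, three replicate libraries pooled, and variants under 10 reads dropped. Fitness is the log change in variant-to-wild-type read ratio, rescaled to cognate 1, non-cognate 0.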
Take SVHF: the “one-hybrid fitness for binding parS DNA” value was at most 0.2. With GTKN the figure was at most 0.2; with SEYI, at most 0.2; with TMTW, at most 0.2. For the variant MINP, the “one-hybrid fitness for binding parS DNA” value was at most 0.2.

As to ACPF, the “one-hybrid fitness for binding parS DNA” value is at most 0.2. As to VVRS, the “one-hybrid fitness for binding parS DNA” value was at most 0.2. Regarding RKLQ, the “one-hybrid fitness for binding parS DNA” value is at most 0.2.

As for CFAG, the “one-hybrid fitness for binding parS DNA” value is at most 0.2. As for GCNS, the “one-hybrid fitness for binding parS DNA” value is at most 0.2. Under LFST stands at most 0.2. Under WRNR stands at most 0.2; under HQQD, at most 0.2. With RKMH the figure was at most 0.2; with RCED, at most 0.2; with ARKH, at most 0.2. Take HKTK: the “one-hybrid fitness for binding parS DNA” value was at most 0.2. Under PMIT stands at most 0.2. Under WNYG stands at most 0.2. Consider GEKR, for which the “one-hybrid fitness for binding parS DNA” value is at most 0.2. Under SAQC stands at most 0.2. For the variant ADLM, the “one-hybrid fitness for binding parS DNA” value was at most 0.2. With CQPL the figure was at most 0.2; with REGG, 0.2. Under KSQV stands at most 0.2; under RGGY, at most 0.2; under HCAA, at most 0.2. With HLNS, the “one-hybrid fitness for binding parS DNA” value is at most 0.2.

As for MTGC, the “one-hybrid fitness for binding parS DNA” value is at most 0.2. With AHCS the figure was at most 0.2; with MSSR, at most 0.2. As for IQTT, the “one-hybrid fitness for binding parS DNA” value is at most 0.2. As for PLSD, the “one-hybrid fitness for binding parS DNA” value was at most 0.2. Turning to KSLG, the “one-hybrid fitness for binding parS DNA” value was at most 0.2. Turning to VTNS, the “one-hybrid fitness for binding parS DNA” value was at most 0.2. As to PCSS, the “one-hybrid fitness for binding parS DNA” value is at most 0.2. With RVMN the figure was 0.388; with APAW, at most 0.2; with KLKC, at most 0.2. As for EISW, the “one-hybrid fitness for binding parS DNA” value was at most 0.2. Consider DWSA, for which the “one-hybrid fitness for binding parS DNA” value is at most 0.2. With YAKW the figure was at most 0.2; with QYDG, at most 0.2. With EGYA the figure was at most 0.2. As for HGYS, the “one-hybrid fitness for binding parS DNA” value is at most 0.2. With AFYC, the “one-hybrid fitness for binding parS DNA” value was at most 0.2. Regarding YTQT, the “one-hybrid fitness for binding parS DNA” value is at most 0.2. Consider EVHT, for which the “one-hybrid fitness for binding parS DNA” value was at most 0.2. Under DQES stands at most 0.2; under HTQA, at most 0.2; under QAKR, at most 0.2. With WTQA the figure was at most 0.2. Under TVRH stands at most 0.2; under IQNY, at most 0.2. Consider NNTV, for which the “one-hybrid fitness for binding parS DNA” value was at most 0.2. With LVPN the figure was at most 0.2. Under QTCE stands at most 0.2. Under AAMR stands at most 0.2. On to LLDL, for which the “one-hybrid fitness for binding parS DNA” value is at most 0.2. Under QWHW stands at most 0.2; under PTRW, at most 0.2.

Regarding HYDE, the “one-hybrid fitness for binding parS DNA” value is at most 0.2. Take CDVS: the “one-hybrid fitness for binding parS DNA” value was at most 0.2.

Consider YRRS, for which the “one-hybrid fitness for binding parS DNA” value came out at 0.382. Under TEHW stands at most 0.2; under IRYV, at most 0.2; under RIYK, at most 0.2. As to AHGI, the “one-hybrid fitness for binding parS DNA” value is at most 0.2.

Turning to RLNQ, the “one-hybrid fitness for binding parS DNA” value is at most 0.2. With YRKG the figure was 0.26; with WAAL, at most 0.2. With HPRD the figure was at most 0.2; with SSMM, at most 0.2. For RWRF, the “one-hybrid fitness for binding parS DNA” value was at most 0.2. With GSDK the figure was at most 0.2; with WPPT, at most 0.2.

In the case of PPVC, the “one-hybrid fitness for binding parS DNA” value is at most 0.2. Take TYNY: the “one-hybrid fitness for binding parS DNA” value is at most 0.2. With TPHV the figure was at most 0.2. In the case of TRAH, the “one-hybrid fitness for binding parS DNA” value is at most 0.2.

Take ALTI: the “one-hybrid fitness for binding parS DNA” value was at most 0.2.

Take RRQI: the “one-hybrid fitness for binding parS DNA” value is at most 0.2.

Consider IDNI, for which the “one-hybrid fitness for binding parS DNA” value was at most 0.2. GLDR: the “one-hybrid fitness for binding parS DNA” value is at most 0.2. Under WALL stands at most 0.2; under WWNG, at most 0.2; under DPCY, at most 0.2. With RQGG the figure was 0.945; with MSFG, at most 0.2; with CWKS, at most 0.2. With CDFS the figure was at most 0.2. Regarding GDPC, the “one-hybrid fitness for binding parS DNA” value came out at 0.239. In the case of QRIQ, the “one-hybrid fitness for binding parS DNA” value is at most 0.2. Take QAKI: the “one-hybrid fitness for binding parS DNA” value is at most 0.2. As to RAMT, the “one-hybrid fitness for binding parS DNA” value was 0.878. With GQSS the figure was at most 0.2; with SKTL, at most 0.2; with HWSS, at most 0.2. With MMPR the figure was at most 0.2. With IRSC, the “one-hybrid fitness for binding parS DNA” value was at most 0.2.

For PPMC, the “one-hybrid fitness for binding parS DNA” value is at most 0.2.

Turning to YCDF, the “one-hybrid fitness for binding parS DNA” value is 0.267. In the case of QTCM, the “one-hybrid fitness for binding parS DNA” value is at most 0.2. With TYSH the figure was at most 0.2; with YWKG, at most 0.2. For the variant FAEV, the “one-hybrid fitness for binding parS DNA” value is at most 0.2. Regarding VNFY, the “one-hybrid fitness for binding parS DNA” value is at most 0.2. Under KECS stands at most 0.2; under IDRR, at most 0.2; under KELS, at most 0.2. As to TVAR, the “one-hybrid fitness for binding parS DNA” value was at most 0.2. Under TEHH stands at most 0.2; under SVAE, at most 0.2. With PLEA the figure was at most 0.2; with PYAP, at most 0.2; with MPSM, at most 0.2. TIST: the “one-hybrid fitness for binding parS DNA” value was at most 0.2. Consider VHSC, for which the “one-hybrid fitness for binding parS DNA” value was at most 0.2.

As to SNTQ, the “one-hybrid fitness for binding parS DNA” value is at most 0.2.

As to RRLP, the “one-hybrid fitness for binding parS DNA” value was at most 0.2. On to RHHK, for which the “one-hybrid fitness for binding parS DNA” value is at most 0.2.

For LVEH, the “one-hybrid fitness for binding parS DNA” value was at most 0.2.

For the variant STIP, the “one-hybrid fitness for binding parS DNA” value was at most 0.2.

In the case of DFTC, the “one-hybrid fitness for binding parS DNA” value was at most 0.2. Under HKQT stands at most 0.2. Under QSEM stands at most 0.2. Turning to LLLT, the “one-hybrid fitness for binding parS DNA” value was at most 0.2. Under ADGF stands at most 0.2. As to EQLS, the “one-hybrid fitness for binding parS DNA” value amounted to 0.217.

AQPF: the “one-hybrid fitness for binding parS DNA” value is at most 0.2. For the variant SDKN, the “one-hybrid fitness for binding parS DNA” value is at most 0.2.

For LMHL, the “one-hybrid fitness for binding parS DNA” value was at most 0.2. NGLS: the “one-hybrid fitness for binding parS DNA” value is at most 0.2. Take QCAK: the “one-hybrid fitness for binding parS DNA” value was at most 0.2. Under IKIS stands at most 0.2; under LEVR, at most 0.2. As to PSRR, the “one-hybrid fitness for binding parS DNA” value was at most 0.2. Under RYCE stands at most 0.2; under LTLR, at most 0.2; under HFYS, at most 0.2. With FSTW the figure was at most 0.2; with INGR, at most 0.2. With VHNV the figure was at most 0.2. For the variant QQGN, the “one-hybrid fitness for binding parS DNA” value is at most 0.2.

As to IMSG, the “one-hybrid fitness for binding parS DNA” value was at most 0.2. For the variant FCSS, the “one-hybrid fitness for binding parS DNA” value is at most 0.2. In the case of HCDS, the “one-hybrid fitness for binding parS DNA” value is at most 0.2.

For the variant TKVL, the “one-hybrid fitness for binding parS DNA” value is at most 0.2.

Turning to QEGH, the “one-hybrid fitness for binding parS DNA” value is at most 0.2.

In the case of TRFY, the “one-hybrid fitness for binding parS DNA” value is at most 0.2. Regarding SAQW, the “one-hybrid fitness for binding parS DNA” value was at most 0.2. With RYME the figure was at most 0.2; with QTCH, at most 0.2.
